Out of some 310,000 compounds screened, about 14,000 (4.5%) showed an effect of 50% or more. The effect is printed as a negative number. This is one part of the list.
Target: human ether-à-go-go-related gene (hERG) potassium channel (human, UniProt Q12809)
Assay: primary screen, population patch clamp on CHO cells stably expressing hERG
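Note: peak tail current of the secondary pulse compared with the same well before compound.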

Sequence of human ether-à-go-go-related gene (hERG) potassium channel (Q12809 whole entry, looked up): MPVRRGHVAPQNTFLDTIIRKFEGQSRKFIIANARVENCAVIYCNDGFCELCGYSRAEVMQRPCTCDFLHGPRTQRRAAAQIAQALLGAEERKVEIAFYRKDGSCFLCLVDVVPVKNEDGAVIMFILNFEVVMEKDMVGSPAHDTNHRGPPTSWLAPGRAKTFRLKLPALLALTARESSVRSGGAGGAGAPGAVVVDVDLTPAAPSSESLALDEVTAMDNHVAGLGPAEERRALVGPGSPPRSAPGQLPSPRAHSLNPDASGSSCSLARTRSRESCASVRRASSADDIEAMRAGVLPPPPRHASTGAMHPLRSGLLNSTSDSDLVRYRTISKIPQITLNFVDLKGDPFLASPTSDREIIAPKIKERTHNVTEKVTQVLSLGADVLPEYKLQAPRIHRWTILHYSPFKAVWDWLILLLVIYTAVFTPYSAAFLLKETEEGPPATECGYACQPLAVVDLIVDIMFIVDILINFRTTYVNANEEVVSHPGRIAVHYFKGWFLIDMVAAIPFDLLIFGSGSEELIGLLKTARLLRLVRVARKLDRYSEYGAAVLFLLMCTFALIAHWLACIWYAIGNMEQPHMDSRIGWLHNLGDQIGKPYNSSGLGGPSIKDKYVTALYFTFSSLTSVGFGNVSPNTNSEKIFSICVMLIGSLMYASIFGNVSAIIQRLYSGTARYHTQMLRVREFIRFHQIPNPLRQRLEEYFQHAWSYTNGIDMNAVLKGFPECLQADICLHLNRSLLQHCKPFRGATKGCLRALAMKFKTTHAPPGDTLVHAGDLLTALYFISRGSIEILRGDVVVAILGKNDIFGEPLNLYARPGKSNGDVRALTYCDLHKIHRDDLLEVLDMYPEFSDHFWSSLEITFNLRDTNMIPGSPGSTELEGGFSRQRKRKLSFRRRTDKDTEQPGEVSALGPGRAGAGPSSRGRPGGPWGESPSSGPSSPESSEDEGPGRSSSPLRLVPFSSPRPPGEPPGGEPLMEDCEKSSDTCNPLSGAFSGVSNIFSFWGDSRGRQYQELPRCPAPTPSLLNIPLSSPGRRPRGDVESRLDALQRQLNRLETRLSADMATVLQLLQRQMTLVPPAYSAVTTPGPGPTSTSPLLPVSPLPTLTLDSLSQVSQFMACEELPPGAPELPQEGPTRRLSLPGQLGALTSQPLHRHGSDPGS

Compared with `COc1cc(NC(=O)C2=C(C)OCCS2)c(Cl)cc1C(=O)NCCN1CCN(C)CC1`, `COc1cc(Cl)c(S(=O)(=O)NCCN2CCOCC2)cc1Cl` is higher in “hERG current change (%, negative = inhibition) at 10uM” value: -47.1% for the first, 5.66% for the second.

Going from `COc1ccc(C(=O)N2c3ccccc3C=CC2C#N)cc1` (centres unmarked) to `CCOc1ccccc1C(=O)Oc1ccc2ccc(=O)oc2c1`, the “hERG current change (%, negative = inhibition) at 10uM” value rises from -4.12% to 11.7%.

First: COc1cc(/C=C(\C#N)c2nc(-c3cc4ccccc4oc3=O)cs2)ccc1O
Second: COc1ccc(NC(=O)CN2C(=O)c3cccc4cccc2c34)cc1OC
The “hERG current change (%, negative = inhibition) at 10uM” value of the first is lower: 7.93% for the first, 24.3% for the second.

Going from `CN1C2CCC1C(COC(=O)c1ccccc1)C(O)C2` (centres unmarked) to `CCOC(=O)C1CCCN(C(=O)CCc2ccccc2)C1` (centres unmarked), the “hERG current change (%, negative = inhibition) at 10uM” value falls from 15.7% to -11.1%.

Compared with `COc1ccc([N+](=O)[O-])cc1NS(=O)(=O)c1cc(C(=O)N2CCN(C)CC2)ccc1OC`, `CCN1CCN(CC(=O)Nc2c(OC)cccc2OC)CC1.O=C(O)C(=O)O` is higher in “hERG current change (%, negative = inhibition) at 10uM” value: -10.4% for the first, 14.3% for the second.

Compared with `CC(=O)NCC1CCCN(c2nc3nonc3nc2N(C)Cc2ccccc2)C1` (centres unmarked), `COc1ccc(S(=O)(=O)NCC2CCCN(C(=O)c3occc3C)C2)cc1` (centres unmarked) is higher in “hERG current change (%, negative = inhibition) at 10uM” value: -36% for the first, 27.1% for the second.

Going from `O=C(NCc1ccccn1)c1ccc(Cn2c(=S)[nH]c3ccc(Br)cc3c2=O)cc1` to `CCOC(=O)C1=C(C)Nc2sc(C(=O)c3ccc(Br)cc3)c(N)c2C1c1ccc(C(=O)OC)cc1` (centres unmarked), the “hERG current change (%, negative = inhibition) at 10uM” value falls from 32.3% to 16.7%.

Compared with `CC(C)(C)c1ccc(S(=O)(=O)N2C=CC(C(F)(F)F)=NCC2)cc1`, `O=C(Nc1ccccc1C(F)(F)F)c1ccccc1Br` is higher in “hERG current change (%, negative = inhibition) at 10uM” value: 6.13% for the first, 10.8% for the second.

Compared with `CN1CCN(CC(=O)N2c3ccccc3C(C)(c3ccccc3)CC2(C)C)CC1` (centres unmarked), `COCCCNC(=O)CN1C(=O)/C(=C/c2ccccc2)Sc2ccccc21` is higher in “hERG current change (%, negative = inhibition) at 10uM” value: -23.2% for the first, -14.3% for the second.

Going from `CCOC(=O)c1cnc2nc(N3CCOCC3)nn2c1N` to `CCn1cc(C(=O)O)c(=O)c2cnc(N3CCN(C(=S)NC(=O)c4ccc(OC)cc4)CC3)nc21`, the “hERG current change (%, negative = inhibition) at 10uM” value falls from 3.01% to 1.34%.

Compared with `COc1ccc(-c2csc(NC(=O)C3CSC4(C)CCC(=O)N34)n2)cc1OC` (centres unmarked), `COc1cccc(C(=O)Nc2nnc(-c3ccc(OC)cc3OC)s2)c1` is lower in “hERG current change (%, negative = inhibition) at 10uM” value: 10.4% for the first, 7.65% for the second.

First: CCCN(CCO)Cc1cccc(Cl)c1
Second: CCCn1cnnc1CNC(=O)C1CCC(=O)N(CCc2cccc(F)c2)C1 (centres unmarked)
The “hERG current change (%, negative = inhibition) at 10uM” value of the first is lower: 3.29% for the first, 14.3% for the second.

Compared with `CCCn1c2c(c(O)c(C(=O)NCCCN(CC)CC)c1=O)CCCC2.Cl`, `CC1(C)CC(=O)C(C=NCCN2CCN(CCCCS(=O)(=O)O)CC2)=C(O)C1` is higher in “hERG current change (%, negative = inhibition) at 10uM” value: -55% for the first, 9.85% for the second.

Compared with `Cn1nc(CC(=O)NC2CCCCC2)c2ccccc2c1=O`, `CN1CC(=O)N2Cc3[nH]c4ccccc4c3C[C@H]2C1=O` is higher in “hERG current change (%, negative = inhibition) at 10uM” value: -1.44% for the first, 12.1% for the second.

Going from `CC1=C(O)C(=O)OC1c1c(Cl)cccc1Cl` (centres unmarked) to `CN(C)C(=O)Cn1cnc2c(cnn2-c2ccccc2Cl)c1=O`, the “hERG current change (%, negative = inhibition) at 10uM” value falls from 7.86% to -4.95%.

Compared with `CCOc1ccc(NC(=O)CN(C)Cc2ccc3c(c2)OCO3)cc1S(=O)(=O)N1CCCC1`, `Cc1ccc(S(=O)(=O)N2CCC(=O)N(CCOC(=O)NCc3ccccc3)CC2)cc1` is higher in “hERG current change (%, negative = inhibition) at 10uM” value: -44.5% for the first, -39.3% for the second.

Compared with `CCOC(=O)C(C)Sc1nnc(Cc2cc(=O)[nH]c(=O)[nH]2)n1-c1ccc(Cl)cc1` (centres unmarked), `CCn1c(SCC(=O)Nc2nccc(C)n2)nc2ccccc21` is lower in “hERG current change (%, negative = inhibition) at 10uM” value: 2.15% for the first, -0.289% for the second.

First: Cc1ccc(-c2nc(CS(=O)CC(=O)NCc3ccccc3)c(C)o2)cc1 (centres unmarked)
Second: COc1cccc(CNC(=O)c2nnn(CC(=O)Nc3ccc(C)c(C)c3)c2N)c1
The “hERG current change (%, negative = inhibition) at 10uM” value of the first is lower: -30.1% for the first, 1.8% for the second.

Compared with `N#C/C(=C1\CCCN1)c1ccc2ccccc2n1`, `Nn1c(-c2ccccc2)nc2cc(Cl)ccc2c1=O` is lower in “hERG current change (%, negative = inhibition) at 10uM” value: 14.2% for the first, -3.27% for the second.

Compared with `O=C(NCc1cccc(Cl)c1)c1cccc(OC2CCN(C(=O)C3CC3)CC2)c1`, `Cc1ccc(C(=O)NC(=S)NNC(=O)c2cccc([N+](=O)[O-])c2)cc1` is higher in “hERG current change (%, negative = inhibition) at 10uM” value: -25.6% for the first, 31.3% for the second.

First: Cc1ccc2nc(N3C(=O)C(O)=C(C(=O)c4ccc(C)o4)C3c3ccco3)sc2c1 (centres unmarked)
Second: Cc1cc(C)n(C(=O)CN2C(=O)c3ccccc3C2=O)n1
The “hERG current change (%, negative = inhibition) at 10uM” value of the first is higher: 12.8% for the first, 8.39% for the second.

Going from `Cc1ccc(S(=O)(=O)NCCN=C(CN2CCOCC2)NS(=O)(=O)c2ccc(C)cc2)cc1` to `O=C1CC(c2ccccc2)CC(O)=C1C=NCCN1CCOCC1` (centres unmarked), the “hERG current change (%, negative = inhibition) at 10uM” value rises from -17.4% to -0.797%.

First: O=C(NCc1ccccc1F)C(c1ccccc1)c1ccccc1
Second: Cc1ccc(NC(=O)c2cccnc2)cc1C
The “hERG current change (%, negative = inhibition) at 10uM” value of the first is lower: 5.79% for the first, 10.7% for the second.

First: O=C(Cc1ncc(C(F)(F)F)cc1Cl)Nc1cccc(Br)c1
Second: Cn1c(Br)nc2c1c(=O)n(CC(O)COc1ccccc1)c(=O)n2C (centres unmarked)
The “hERG current change (%, negative = inhibition) at 10uM” value of the first is higher: -1.28% for the first, -1.54% for the second.

Compared with `c1cnc(N2CCN(c3nc4ccccc4n4cnnc34)CC2)nc1`, `CCN(C(=O)Cn1c(=O)oc2ccccc21)C1CCS(=O)(=O)C1` (centres unmarked) is higher in “hERG current change (%, negative = inhibition) at 10uM” value: -27.6% for the first, -5.12% for the second.

Going from `O=c1c(C(c2ccc(O)cc2)c2c(O)nc3n(c2=O)CCS3)c(O)nc2n1CCS2` to `CC(C)=CC(=O)Nc1nnc(-c2cccnc2)s1`, the “hERG current change (%, negative = inhibition) at 10uM” value rises from 3.65% to 24.6%.

First: COc1ccc2c(c1)C(NC(C)=O)C(=O)N2C (centres unmarked)
Second: CCO/C(=C/c1sc2ccc(OC)cc2[n+]1CCCS(=O)(=O)[O-])CC
The “hERG current change (%, negative = inhibition) at 10uM” value of the first is lower: -5.38% for the first, 0.625% for the second.

Going from `CC(C)C(=O)O/N=C1\CCS(=O)(=O)c2sccc21` to `CCOC(=O)CCC(NC(=O)CCCCCCCC(=O)NC(CCC(=O)OCC)C(=O)OCC)C(=O)OCC` (centres unmarked), the “hERG current change (%, negative = inhibition) at 10uM” value rises from -12% to -10.1%.

Reference: PMC4336329 (PLoS ONE, 2015)
